This note sets out measurements from patent US11618753B2 (priority 2018, dated 2023).

Each structure is given as a SMILES string. Where a name gives a salt, the structure may show the parent alone.

The test deals with MLKL phosphorylation, HT29-L23 human colorectal adenocarcinoma cells. Nature of the test: cells. The settings on record: read-out: pMLKL HCS Cell Assay (IC50, uM).
For `Cc1cc(F)c(C(=O)N[C@@H]2CN(C(=O)C3CCC(F)(F)C3)C[C@@H]2F)cc1-c1cc(C(F)(F)F)c2c(N)ncnn12` (stereo partly drawn) [Example 392, 5-[4-amino-5-(trifluoromethyl)pyrrolo[2,1-f][1,2,4]triazin-7-yl]-N-[(3R,4S)-1-(3,3-difluorocyclopentanecarbonyl)-4-fluoropyrrolidin-3-yl]-2-fluoro-4-methylbenzamide], the IC50 (commonly the concentration needed to halve the response being measured) was determined as 0.277 µM.

`CCc1ccc(-c2cc(C(F)(F)F)c3c(N)ncnn23)c(F)c1C(=O)N[C@@H]1CN(C(=O)C2CC2(F)F)C[C@@H]1F` (stereo partly drawn) [Example 740, 3-[4-amino-5-(trifluoromethyl)pyrrolo[2,1-f][1,2,4]triazin-7-yl]-N-[(3R,4S)-1-(2,2-difluorocyclopropanecarbonyl)-4-fluoropyrrolidin-3-yl]-6-ethyl-2-fluorobenzamide]: the IC50 was 0.02 µM.

Consider `COc1ncc(-c2cc(CN3CC(F)(F)C3)c3c(N)ncnn23)cc1C(=O)N[C@@H]1CN(C(=O)C2CC(F)(F)C2)C[C@@H]1F` [Example 489, 5-{4-amino-5-[(3,3-difluoroazetidin-1-yl)methyl]pyrrolo[2,1-f][1,2,4]triazin-7-yl}-N-[(3R,4S)-1-(3,3-difluorocyclobutanecarbonyl)-4-fluoropyrrolidin-3-yl]-2-methoxypyridine-3-carboxamide], for which the IC50 is 0.00076 µM. The same measure for `CCC(O)(C(=O)N1C[C@H](F)[C@H](NC(=O)c2cc(-c3cc(C(F)(F)F)c4c(N)ncnn34)c(F)cc2F)C1)C(F)(F)F` (stereo partly drawn) [Example 781, 5-[4-amino-5-(trifluoromethyl)pyrrolo[2,1-f][1,2,4]triazin-7-yl]-2,4-difluoro-N-[(3R,4S)-4-fluoro-1-[2-hydroxy-2-(trifluoromethyl)butanoyl]pyrrolidin-3-yl]benzamide]: 0.026 µM; for `[2H]C([2H])([2H])Oc1ncc(-c2cc(CN3CC(F)(F)C3)c3c(N)ncnn23)cc1C(=O)N[C@@H]1CN(S(=O)(=O)CC2CC2)C[C@@H]1F` [Example 1292, 5-{4-amino-5-[(3,3-difluoroazetidin-1-yl)methyl]pyrrolo[2,1-f][1,2,4]triazin-7-yl}-N-[(3R,4S)-1-cyclopropylmethanesulfonyl-4-fluoropyrrolidin-3-yl]-2-(methoxy-d3)nicotinamide]: 0.00058 µM. With `CCOc1ccc(-c2cc(C(F)(F)F)c3c(N)ncnn23)cc1C(=O)N[C@@H]1CN(C(=O)C(C)C(F)(F)F)C[C@@H]1F` (stereo partly drawn) [Example 1111, 5-[4-amino-5-(trifluoromethyl)pyrrolo[2,1-f][1,2,4]triazin-7-yl]-2-ethoxy-N-[(3R,4S)-4-fluoro-1-(3,3,3-trifluoro-2-methylpropanoyl)pyrrolidin-3-yl]benzamide], the 50% inhibitory concentration (IC50) was determined as 0.033 µM. For the molecule `COc1ncc(-c2cc(C(F)(F)F)c3c(N)ncnn23)cc1C(=O)N[C@@H]1CN(C(=O)C2CC(F)(F)C2)C[C@@H]1F` [Example 31-1, 5-[4-amino-5-(trifluoromethyl)pyrrolo[2,1-f][1,2,4]triazin-7-yl]-N-[1-(3,3-difluorocyclobutanecarbonyl)-(3R,4S)-4-fluoropyrrolidin-3-yl]-2-methoxypyridine-3-carboxamide], the IC50 turned out to be 0.013 µM. Take `COc1ncc(-c2cc(C(F)(F)F)c3c(N)ncnn23)cc1C(=O)N[C@@H]1CN(C(=O)C2(C(F)(F)F)CCCCC2)C[C@@H]1F` [Example 312, 5-[4-amino-5-(trifluoromethyl)pyrrolo[2,1-f][1,2,4]triazin-7-yl]-N-[(3R,4S)-4-fluoro-1-[1-(trifluoro-methyl)cyclohexanecarbonyl]pyrrolidin-3-yl]-2-methoxypyridine-3-carboxamide, TFA]: the 50% inhibitory concentration (IC50) worked out at 0.017 µM. The same measure for `Nc1ncnn2c(-c3cc(C(=O)N[C@@H]4CN(C(=O)C5CCC(F)(F)C5)C[C@@H]4F)c(Cl)cc3F)cc(C(F)(F)F)c12` (single isomer, unassigned) [Example 886]: 0.0026 µM; for `COc1ncc(-c2cc(C(F)(F)F)c3c(N)ncnn23)cc1C(=O)N[C@@H]1CN(CC(O)COC(F)(F)C(F)F)C[C@@H]1F` (stereo partly drawn) [Example 1832, 5-(4-amino-5-(trifluoromethyl)pyrrolo[2,1-f][1,2,4]triazin-7-yl)-N-((3R,4S)-4-fluoro-1-(2-hydroxy-3-(1,1,2,2-tetrafluoroethoxy)propyl)pyrrolidin-3-yl)-2-methoxynicotinamide]: 0.172 µM; for `Nc1ncnn2c(-c3cc(C(=O)N[C@@H]4CN(C(=O)C5CC5(F)F)C[C@@H]4F)c(F)cc3F)cc(C(F)(F)F)c12` (stereo partly drawn) [Example 788, 5-[4-amino-5-(trifluoromethyl)pyrrolo[2,1-f][1,2,4]triazin-7-yl]-N-[(3R,4S)-1-(2,2-difluorocyclopropanecarbonyl)-4-fluoropyrrolidin-3-yl]-2,4-difluorobenzamide]: 0.0083 µM. Regarding `COC(=O)NCc1cc(-c2cnc(OC)c(C(=O)N[C@@H]3CN(C(=O)C4CC(F)(F)C4)C[C@@H]3F)c2)n2ncnc(N)c12` [Example 493, methyl N-{[4-amino-7-(5-{[(3R,4S)-1-(3,3-difluorocyclobutanecarbonyl)-4-fluoropyrrolidin-3-yl]carbamoyl]-6-methoxypyridin-3-yl)pyrrolo[2,1-f][1,2,4]triazin-5-yl]methyl}carbamate], the IC50 was 0.106 µM. The same measure for `COc1ncc(-c2cc(CN3CCC(F)(F)CC3)c3c(N)ncnn23)cc1C(=O)N[C@@H]1CN(C(=O)OC2(C)CC2)C[C@@H]1F` [Example 1519, 1-methylcyclopropyl (3R,4S)-3-(5-{4-amino-5-[(4,4-difluoropiperidin-1-yl)methyl]pyrrolo[2,1-f][1,2,4]triazin-7-yl}-2-methoxypyridine-3-amido)-4-fluoropyrrolidine-1-carboxylate]: 0.0037 µM; for `CCc1c(F)cc(-c2cc(C(F)(F)F)c3c(N)ncnn23)cc1C(=O)N[C@@H]1CN(C(=O)CC(C(F)(F)F)C(F)(F)F)C[C@@H]1F` [Example 654, 54-[4-amino-5-(trifluoromethyl)pyrrolo[2,1-f][1,2,4]triazin-7-yl]-2-ethyl-3-fluoro-N-[(3R,4S)-4-fluoro-1-[4,4,4-trifluoro-3-(trifluoromethyl)butanoyl]pyrrolidin-3-yl]benzamide]: 0.0067 µM. As for `CC(C)(F)C(=O)N1C[C@H](F)[C@H](NC(=O)c2cccc(-c3cc(C(F)(F)F)c4c(N)ncnn34)c2F)C1` [Example 769, 3-[4-amino-5-(trifluoromethyl)pyrrolo[2,1-f][1,2,4]triazin-7-yl]-2-fluoro-N-[(3R,4S)-4-fluoro-1-(2-fluoro-2-methylpropanoyl)pyrrolidin-3-yl]benzamide], the 50% inhibitory concentration (IC50) is 0.295 µM.

Turning to `COc1ncc(-c2cc(C(F)(F)F)c3c(N)ncnn23)cc1C(=O)N[C@@H]1CN(C(=O)C2CCCO2)C[C@@H]1F` (stereo partly drawn) [Example 325, 5-[4-amino-5-(trifluoromethyl)pyrrolo[2,1-f][1,2,4]triazin-7-yl]-N-[(3R,4S)-4-fluoro-1-(oxolane-2-carbonyl)pyrrolidin-3-yl]-2-methoxypyridine-3-carboxamide], the IC50 came out at 0.106 µM. For the molecule `CC(C(=O)N1C[C@H](F)[C@H](NC(=O)c2cc(-c3cc(C(F)(F)F)c4c(N)ncnn34)ccc2OC(F)(F)F)C1)C(F)(F)F` (stereo partly drawn) [Example 1058, 5-[4-amino-5-(trifluoromethyl)pyrrolo[2,1-f][1,2,4]triazin-7-yl]-N-[(3R,4S)-4-fluoro-1-(3,3,3-trifluoro-2-methylpropanoyl)pyrrolidin-3-yl]-2-(trifluoromethoxy)benzamide], the concentration for half-maximal inhibition (IC50) is 0.244 µM.
